{
  "source": "paper PMC6932820",
  "about": "“Identification of viral SIM-SUMO2-interaction inhibitors for treating primary effusion lymphoma” (PLoS Pathogens, 2019)",
  "binders": {"B1": {"name": "His-SUMO2 (natural protein)", "chain": "not shown", "notes": "SUMO2; also called purified His-SUMO2; source: E. coli BL21 (DE3), purified on beads"}},
  "target": "T1, GST-LANA1-329(N) (Kaposi's sarcoma-associated herpesvirus …, UniProt Q9QR71 1-329)",
  "T1 construct": "latency-associated nuclear antigen (LANA) of KSHV, encoded by ORF73, residues 1-329; also called GST-LANA-N (WT); source: E. coli BL21 (DE3), purified on beads",
  "T1 sequence": "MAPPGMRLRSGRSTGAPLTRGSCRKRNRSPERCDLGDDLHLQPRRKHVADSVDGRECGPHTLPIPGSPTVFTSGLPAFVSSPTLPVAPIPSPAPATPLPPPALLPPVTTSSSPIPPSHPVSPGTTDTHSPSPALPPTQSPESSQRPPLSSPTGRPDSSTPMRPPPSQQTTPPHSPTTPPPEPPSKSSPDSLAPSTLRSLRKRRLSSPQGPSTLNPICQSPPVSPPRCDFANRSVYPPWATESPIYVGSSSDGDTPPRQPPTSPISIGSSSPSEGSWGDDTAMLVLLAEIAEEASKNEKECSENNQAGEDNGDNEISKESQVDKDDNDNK",
  "test": "pull-down; purified His-SUMO2 incubated with GST-LANA-N (WT or QTA) on glutathione-sepharose beads in NETN binding buffer (50 mM Tris-HCl pH 7.5, 100 mM NaCl) at 4°C; untreated, DMSO or different dosages of Cambogin; immunoblot",
  "details": "both partners purified",
  "data": [
    {"binder": "B1", "values": [
      {"measurement": "binding result", "value": "binds"}
    ]}
  ]
}
